Assay results: ChEMBL document CHEMBL1201862, “PubChem BioAssay data set” (2004)

What follows are compounds tested on NCI-H322M (assay: NCI-60 cell line screen, 48 h).
For `COc1cc2c(cc1OC)C1C(=O)c3c(O)cc4c(c3OC1CO2)C=CC(C)(C)O4` (stereo not drawn), the GI50 was inactive: 80.4 µM. For `COc1cccc(-c2cc(O)c3cc(N4CCCC4)ccc3n2)c1`, the GI50 was active: 0.00212 µM. In the case of `Cc1cc(C(=O)CCCCOc2ccc(C3=NCCO3)cc2)c(C)n1C`, the GI50 is reported as inactive: > 100 µM. In the case of `Cc1c(C(=O)OCc2ccccc2)[n+]([O-])c2ccccc2[n+]1[O-]`, the GI50 is reported as inactive: 26.4 µM. In the case of `O=c1c2cc([N+](=O)[O-])cnc2sn1-c1ccc(Oc2ccccc2)cc1`, the GI50 is reported as inactive: 36.1 µM. For `COc1ccc(C(=O)Cn2c(C(C)=O)nc3ccccc32)cc1`, the GI50 was inactive: 26.5 µM. For `CC1(C)O[C@@H](CO)[C@H]([C@@]23OC[C@H]4OC(C)(C)OC4[C@@H]2OC(C)(C)O3)O1` (stereo partly drawn), the GI50 was inactive: > 100 µM. In the case of `Cc1ccc(C)c(N2C/C(=N\NC(=O)CC#N)C(c3nc4ccccc4s3)C(=O)C2=O)c1` (stereo not drawn), the GI50 is reported as inactive: > 100 µM. For `CO/C=C/c1cc2c(cc1C(OC)OC)OCO2`, the GI50 was inactive: 55 µM. For `Fc1cccc2cc3ccc4cccc5ccc(c12)c3c45`, the GI50 was inactive: 36.6 µM. With `Cc1cc2c(cc1Cl)SC(c1ccccc1)C(=O)NS2(=O)=O` (stereo not drawn) the GI50 was inactive: 42.8 µM. For `Nc1ncc2c(n1)-c1ccccc1OC2`, the GI50 was inactive: > 93.3 µM. For `CC(=O)OC1COC(Nc2nc(NCc3ccccc3)n(C)c(=O)c2N=O)C(OC(C)=O)C1OC(C)=O` (stereo not drawn), the GI50 was inactive: > 10 µM. `[O-][n+]1ccccc1Sc1nc(Sc2cccc[n+]2[O-])nc(Sc2cccc[n+]2[O-])n1` was tested, and the GI50 was inactive: 14.1 µM. `COc1cc(O)c(C(=O)C2Cc3ccccc32)c(OC)c1` (stereo not drawn) was tested, and the GI50 was inactive: > 100 µM. For `O=C(CNc1ccccn1)Nn1cnc2ccc(S(=O)(=O)Nc3ccccn3)cc2c1=O`, the GI50 was inactive: > 100 µM. `COCCOC1=C(Cl)C(=O)c2c(O)ccc(O)c2C1=O` was tested, and the GI50 was inactive: 10.4 µM. `C=CC(C)(C)[C@@]12CC3C(=O)N[C@@H](Cc4ccccc4)C(=O)N3[C@@H]1N(C(C)=O)c1ccccc12` (stereo partly drawn) was tested, and the GI50 was inactive: > 100 µM. For `Cc1cccc2sc(NC(=O)NS(=O)(=O)n3cnc4ccccc43)nc12`, the GI50 was inactive: 32.1 µM. In the case of `Cc1nc2c(o1)C(=O)c1ccccc1/C2=N/C1CCCCC1N` (stereo not drawn), the GI50 is reported as inactive: 1.76 µM. With `Cc1ccc(Nc2nc(-c3ccc(-c4ccc([N+](=O)[O-])cc4)o3)cs2)cc1` the GI50 was inactive: > 100 µM. In the case of `CCOC(C[Se]CC(OCC)OCC)OCC`, the GI50 is reported as inactive: 40.4 µM. `NC1CCN(c2nc3ccccc3c3c2CCCC3)CC1` was tested, and the GI50 was inactive: 4.07 µM. For `Cc1cccc(-c2nc3ccc([N+](=O)[O-])cc3c(=O)o2)c1`, the GI50 was inactive: > 100 µM. For `N#Cc1nc(C2OC(COC(=O)c3ccccc3)C(OC(=O)c3ccccc3)C2OC(=O)c2ccccc2)oc1N` (stereo not drawn), the GI50 was inactive: 93.1 µM. `CCOC(=O)CCC(NC(=O)N1CCN(c2c(C)nc(C)nc2O)CC1)C(=O)OCC` (stereo not drawn) was tested, and the GI50 was inactive: > 100 µM. In the case of `COc1cc(C2C(C(=O)Nc3ccc([N+](=O)[O-])cc3)=C(C)NC(C)=C2C(=O)Nc2ccc([N+](=O)[O-])cc2)ccc1O`, the GI50 is reported as inactive: 18.9 µM. In the case of `NC(=O)NC1C(C(=O)O)N(Cc2ccccc2)C(=O)N1Cc1ccccc1` (stereo not drawn), the GI50 is reported as inactive: > 100 µM. In the case of `COc1cc(S(=O)(=O)Nc2ccc(-c3csc(N4C(=O)CSC4c4ccccc4O)n3)cc2)ccc1Cl` (stereo not drawn), the GI50 is reported as inactive: 54.2 µM. For `Cc1c(C)c2c(c(N)c1C#N)C(=O)N(NC(=S)Nc1ccccc1)C2=O`, the GI50 was inactive: > 100 µM. In the case of `CC(C)C(Cl)CCC(C)(Cl)C(=O)CBr` (stereo not drawn), the GI50 is reported as inactive: 33.1 µM. With `COc1cc(Cn2c3c(c4cc(O)ccc42)Cc2ccccc2C3=O)cc(OC)c1` the GI50 was inactive: > 100 µM. For `COc1cc(/C=C2\CCC(C)C3=C2NC(=S)NC3c2cc(OC)c(OC)c(OC)c2)cc(OC)c1OC` (stereo not drawn), the GI50 was inactive: 69.2 µM. In the case of `Cc1cc(N(CCC#N)CCC#N)ccc1C(/N=N/c1ccccc1)=N\NC(=O)c1ccccc1`, the GI50 is reported as inactive: 21.9 µM. `CC1OC(O[C@H]2CC[C@]3(C=O)[C@H]4CC[C@]5(C)[C@H](C6=CC(=O)OC6)CC[C@]5(O)[C@@H]4C=C[C@]3(O)C2)CC(O)C1O` (stereo partly drawn) was tested, and the GI50 was active: 0.497 µM. With `O=C1NC(N2CCCCC2)=N/C1=C\c1ccco1` the GI50 was inactive: > 100 µM. In the case of `COc1ccccc1NC(=O)C1=C(C)NC(C)=C(C(=O)Nc2ccccc2OC)C1c1ccc([N+](=O)[O-])cc1`, the GI50 is reported as inactive: > 100 µM. In the case of `[N-]=[N+]=Nc1ccc(CNc2cc(=O)[nH]c(=O)[nH]2)cc1`, the GI50 is reported as inactive: > 100 µM. With `COc1ccc2nc3cc(Cl)ccc3c(NCCNCCCNC(=O)c3cc(-c4ccccc4)nc4ccccc34)c2c1` the GI50 was inactive: > 100 µM. `Cc1ccc(NC(=O)C(=O)C(C(=O)/C=C/c2ccccc2)C2OC(=O)c3ccccc32)c(C)c1` (stereo not drawn) was tested, and the GI50 was inactive: > 100 µM. `CC1OC(OCC2OC(Oc3c(-c4ccc(O)cc4)oc4cc(O)cc(O)c4c3=O)C(OC3OCC(O)(CO)C3O)C(O)C2O)C(O)C(O)C1O` (stereo not drawn) was tested, and the GI50 was inactive: > 100 µM. In the case of `CC1(C)CCC2(C(=O)OC3OC(CO)C(O)C(O)C3O)CCC3(C)C(=CCC4C5(C)CCC(OC6OC(CO)C(O)C(O)C6O)C(C)(C)C5CCC43C)C2C1` (stereo not drawn), the GI50 is reported as inactive: 16.9 µM. For `O=C(c1ccccn1)c1nc(-c2ccc(Cl)c(Cl)c2)nc2ccc(Cl)cc12`, the GI50 was inactive: > 100 µM. With `COc1ccc([C@H]2[C@@H]3CCc4ccccc4C3=NN2C(N)=S)cc1OC` the GI50 was inactive: 90.2 µM. For `O=C(NCC(O)CNC(=O)C(F)(F)F)C(F)(F)F`, the GI50 was inactive: > 100 µM. In the case of `CO/C=C1\OC(=O)C=C1OC`, the GI50 is reported as inactive: > 100 µM. `O=C1CCCC2=C1CC1=C(CCCC1=O)N2c1ccccc1C(=O)O` was tested, and the GI50 was inactive: > 100 µM. `CP1(=O)CCCCC1` was tested, and the GI50 was inactive: > 100 µM. In the case of `NNC(=O)c1c(-c2cccnc2)cnc2ccccc12`, the GI50 is reported as inactive: > 100 µM. `O=C(O)Cc1ccc(Nc2nc3cc(C(F)(F)F)ccc3nc2C(=O)O)cc1` was tested, and the GI50 was inactive: > 100 µM. For `CC(=O)OC1CC2(O)C(CCC3(C)C(c4ccc(=O)oc4)CCC32O)C2(C)CCC(O)C=C12` (stereo not drawn), the GI50 was active: < 0.0141 µM. With `N#Cc1nc(C2CCC(=O)O2)oc1N` (stereo not drawn) the GI50 was inactive: > 100 µM. With `Cc1cc(/N=C/c2ccc(C#N)cc2)n(-c2ccccc2)n1` the GI50 was inactive: 92 µM. `c1ccc(B2OCC(C3OB(c4ccccc4)OC4COB(c5ccccc5)OC43)O2)cc1` (stereo not drawn) was tested, and the GI50 was inactive: > 100 µM. For `O=C1NC(=S)S/C1=C/c1ccco1`, the GI50 was inactive: > 100 µM. For `CC(C(=O)c1ccncc1)c1ccccn1` (stereo not drawn), the GI50 was inactive: > 100 µM. With `Cc1ccc(C2=C(C#N)C(=O)N3CCN=C3S2)cc1` the GI50 was inactive: > 100 µM. In the case of `CCCCCCCCCCCCCCCCCC(=O)OCC(COC1OC(CS(=O)(=O)O)C(O)C(O)C1O)OC(=O)CCCCCCCCCCCCCCCCC` (stereo not drawn), the GI50 is reported as inactive: > 100 µM. `O=C(O)CCNC(=O)c1cc(N(CCBr)CCBr)c([N+](=O)[O-])cc1[N+](=O)[O-]` was tested, and the GI50 was inactive: > 100 µM. For `C=C(C)C1CC=C(C)[C@](O)(C2(O)C[C@H](C(=C)C)CC=C2C)C1` (stereo partly drawn), the GI50 was inactive: > 100 µM. For `COc1ccc2c3c([nH]c2c1)[C@H]1C[C@H]2[C@H](C[C@@H](O)[C@H](OC)[C@H]2C(=O)O)CN1CC3`, the GI50 was inactive: > 100 µM. `Cc1cn(C2CC(O)C(CO)O2)c(=O)[nH]c1=O` (stereo not drawn) was tested, and the GI50 was inactive: 1830 µM. `Cc1cc(C)c2c(O)cc(-c3ccc(F)cc3)nc2n1` was tested, and the GI50 was inactive: 65.8 µM.

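Method: 48-hour compound exposure of cells in 96-well plates, five concentrations, linear interpolation of endpoints. Here, GI50 denotes the concentration required for 50% inhibition of growth.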 Activity calls are given as the source filed them. Rule as the data show it: active = GI50 up to about 1.1 µM and inactive = higher.
